# Experimental data reported in article PMC7819943, “Rice protein-binding microarrays: a tool to detect cis-acting elements near promoter regions in rice”.
# This is one part of the list.
# Target: T1, OsWOX13 (Oryza sativa, UniProt Q5QMM3 1-267)
# T1 sequence: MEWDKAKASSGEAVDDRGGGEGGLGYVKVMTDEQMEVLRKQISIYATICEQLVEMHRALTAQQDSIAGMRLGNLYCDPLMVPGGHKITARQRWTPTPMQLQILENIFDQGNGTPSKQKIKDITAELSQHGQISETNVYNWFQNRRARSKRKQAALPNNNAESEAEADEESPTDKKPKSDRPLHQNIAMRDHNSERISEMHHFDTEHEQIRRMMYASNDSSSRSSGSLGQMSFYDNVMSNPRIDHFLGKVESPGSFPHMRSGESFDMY
# Experiment: protein-binding microarray (RPBM); PBS, 2% BSA, 51.3 ng/ul salmon testes DNA, 50 uM zinc acetate, 200 nM TF, 25 C, 1 h; high values mean tight binding
# Conditions: protein: recombinant; tags: N-terminal polyhistidine and DsRed monomer fusion (pET32a); label: CyDye5-dUTP incorporated in the synthesized complementary strand; 3' TTTTT single-stranded linker to array surface; dsDNA, one strand shown
# Procedure, shortened: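 For the binding signal, per-feature fluorescence intensity was read in arbitrary units on an Axon 4000B scanner. Before scanning, a 2% BSA-blocked custom Agilent array made double-stranded with Cy5-dUTP was washed after 1 h at 25 °C with 200 nM protein and 50 µM zinc acetate. The proteins were Ni–NTA-purified transcription factors with N-terminal polyhistidine and DsRed fusions, expressed in E. coli BL21-CodonPlus.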
row,Sequence,binding signal
1,AAAATATATATTTTGCAATAATTTATGTGTCAAATTGAACCGGAGTCACCTAGTGCAG,5050 fluorescence intensity (a.u.)
2,TATACTAATTACTAGCACTACTACTCCAGTAGAGTAGGAGCGGAGTCACCTAGTGCAG,11000 fluorescence intensity (a.u.)
3,TAACTAATTACCAAACAGATCGTACCCCACCATAAGAATCCGGAGTCACCTAGTGCAG,29200 fluorescence intensity (a.u.)
4,ATTAATTGCATTTCCTGCCTCGGTTTCAGAAAAGAAAAGTCGGAGTCACCTAGTGCAG,22500 fluorescence intensity (a.u.)
5,AGAAATGGATAATGACTGGTACGTGGGCCGCTATAACTTTCGGAGTCACCTAGTGCAG,13400 fluorescence intensity (a.u.)
6,TCCAACTGATAGTTGATGATAGGCGTTAGGTTAGTTTACTCGGAGTCACCTAGTGCAG,8180 fluorescence intensity (a.u.)
7,CGCGCTGATTTGACTTCCGGTTTGAAATACCACCACACCACGGAGTCACCTAGTGCAG,23500 fluorescence intensity (a.u.)
8,TTGATGCCTAATTTGTTATTTTATAATTTTATTTGAATTTCGGAGTCACCTAGTGCAG,8290 fluorescence intensity (a.u.)
9,CTATGGGATTGGTTGTTATTTGTACTACTGAGTACTGACCCGGAGTCACCTAGTGCAG,14000 fluorescence intensity (a.u.)
10,AACAAACATTCCTCTGATAATTAAGTTATATTATACTTCCCGGAGTCACCTAGTGCAG,3260 fluorescence intensity (a.u.)
11,TTTTATATGACAATCAGCCTTCTATCAATAAAGTAGGTATCGGAGTCACCTAGTGCAG,5430 fluorescence intensity (a.u.)
12,GTTAATTAATACTCTCCGTTTCATATTATAAGGCGTTTGACGGAGTCACCTAGTGCAG,17400 fluorescence intensity (a.u.)
13,TGTTCTTTAACAGATTGATAGGGCTAGTTTAGTACAGTAACGGAGTCACCTAGTGCAG,25300 fluorescence intensity (a.u.)
14,TAATTTAAATAAATTACTTTTAAGTTAATAAAATATTTGACGGAGTCACCTAGTGCAG,3580 fluorescence intensity (a.u.)
15,CGCCATTTTCAATCAAAGATTCCTACTAGTATTAGTAGTGCGGAGTCACCTAGTGCAG,22000 fluorescence intensity (a.u.)
16,TGTAATTGTCATGAGGCATTCAACATTTCTGAGTTGGCGCCGGAGTCACCTAGTGCAG,14100 fluorescence intensity (a.u.)
17,ATGTCAGGACAATCAGGATTTAATTATTTTACAGCGGGGACGGAGTCACCTAGTGCAG,9780 fluorescence intensity (a.u.)
18,TTAGATTGAATCTGTGAATTCCCTTCCTCTCCGTACGTCACGGAGTCACCTAGTGCAG,35200 fluorescence intensity (a.u.)
19,TGTGATGTGATGGAAAGTTGGAAGTTTGGTGTGAACTAAACGGAGTCACCTAGTGCAG,5490 fluorescence intensity (a.u.)
20,TGTGTCGGTTAATTTCTTTCCTGTGACCTATCAAAGATGACGGAGTCACCTAGTGCAG,3650 fluorescence intensity (a.u.)
21,ATTTAAAATAGTTAATACTTAATTAATCATGAGCTAATAGCGGAGTCACCTAGTGCAG,7430 fluorescence intensity (a.u.)

row,Sequence,binding signal
1,GTTTAGACTGTAGAGATTGCCAAAATTAACAAGTGACCAACGGAGTCACCTAGTGCAG,14900 fluorescence intensity (a.u.)
2,ATCTAATTATCTGTTGCAATATAGTCATCACTGTGATTTCCGGAGTCACCTAGTGCAG,13400 fluorescence intensity (a.u.)
3,GTGATGATAGCTCCATGATTTCTGCTAGCATGCCAGGAACCGGAGTCACCTAGTGCAG,12900 fluorescence intensity (a.u.)
4,CATGTTAATTTGGGACGAGAGTCGGACTCCTATTTCCTTTCGGAGTCACCTAGTGCAG,7570 fluorescence intensity (a.u.)
5,CGTCAATCTCGCATCAGAAGGTCTCCACCTGTCCCACGTGCGGAGTCACCTAGTGCAG,4500 fluorescence intensity (a.u.)
6,AATTATATACTAATTACATATGTAAGTGGGGTGTAAATGACGGAGTCACCTAGTGCAG,6890 fluorescence intensity (a.u.)
7,AATTGTCATCTTGTGGTCCAATCAATCCATGTATTTTCTTCGGAGTCACCTAGTGCAG,3510 fluorescence intensity (a.u.)
8,TAACAAATTAAAGTCTAACTAGTATATACATATATTCAGACGGAGTCACCTAGTGCAG,4350 fluorescence intensity (a.u.)
9,CACTGATGACAGACACATCCAACAATCTCAATATTACTAGCGGAGTCACCTAGTGCAG,19600 fluorescence intensity (a.u.)
10,CGCACGTGATTCGTCGGAAGTATGTTTCTTTACATGCCTACGGAGTCACCTAGTGCAG,20400 fluorescence intensity (a.u.)
11,GTTGATTGTTAGTGCATATTTATATATATATTCAGGATTTCGGAGTCACCTAGTGCAG,44400 fluorescence intensity (a.u.)
12,AGTTAAATTATTGTCCTCTTAATTTCTGTCACGGTGTCACCGGAGTCACCTAGTGCAG,26100 fluorescence intensity (a.u.)
13,ATTTGTCTACCCAAGATGATTGGAGCCACACGTCGGTCAGCGGAGTCACCTAGTGCAG,12800 fluorescence intensity (a.u.)
14,TTTGCTTCACATAATCACGAAGCAGATTGCCGAAAGGGTTCGGAGTCACCTAGTGCAG,3850 fluorescence intensity (a.u.)
15,ACCATCAAATTAAATTTATAATGGGATGATCCAATTAATCCGGAGTCACCTAGTGCAG,18800 fluorescence intensity (a.u.)
16,CTGATTGTTTGTGCTTCTGTTTCCCCTGAGGACAATGAACCGGAGTCACCTAGTGCAG,23600 fluorescence intensity (a.u.)
17,CAGAGCCAGTGATTGGAGGGTGGAGAGGGCTCCAATAATCCGGAGTCACCTAGTGCAG,13600 fluorescence intensity (a.u.)
18,CTTTAATTTATGTATTGTGTTCAATGCTTCAATCACTTGACGGAGTCACCTAGTGCAG,19200 fluorescence intensity (a.u.)
19,ATGTCAATTTGCCACATCACGGTAACAACTTGAAGTACACCGGAGTCACCTAGTGCAG,13100 fluorescence intensity (a.u.)
20,GATTGATTTGAAACCAATTCATTGGTATTACCTAATCTAGCGGAGTCACCTAGTGCAG,43800 fluorescence intensity (a.u.)
21,ACGTGTACGGCGCGGGGTGGAGGTGAGGGGTGGTGGGGCCCGGAGTCACCTAGTGCAG,5960 fluorescence intensity (a.u.)
